# Laboratory results published in article PMC12040169 (PLOS Biology, 2025).
# Some of the results follow.
# System: T1, C. trachomatis L2/434/Bu expressing GFP (CTL2-GFP)
# T1 construct: L2/434/Bu GFP intracellular growth in HeLa cells
# Parameters: species or system HeLa; C. trachomatis total inclusion area by high-content imaging, normalised to DMSO
# Details: total inclusion area; 28.5 h, 10 µM; inhibitor
# Summary of the method: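 Following bulk GFP and resorufin fluorescence reads, infected cells were fixed, Hoechst-stained and imaged on a high-content platform. Inclusion total area and number per well served as growth proxies; nuclei counts indicated host viability. MICs were derived as for the fluorescence assay.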
row,SMILES,% of control remaining
1,CCN1CCC2(CCC1=O)CN(Cc1cncn1CC(C)C)CCN2C (stereo not shown) [CBK306947],52.9822
2,Cc1ccc(N2CCCN(C(=O)CCc3ccsc3)CC2)nn1 [CBK304573],55.581
3,CCCc1cc(=O)[nH]c(Nc2ccc(OCC)cc2)n1 [CBK288140],80.9121
4,O=S(=O)(c1ccc(C(F)(F)F)cc1Cl)N1CCN(Cc2c[nH]nc2-c2cccs2)CC1 [CBK062864],81.605
5,CC(C)(C)OC(=O)Nc1ccc(Oc2ncc(C(F)(F)F)cc2Cl)cc1 [CBK161658],88.019
6,Cc1cc2ncc3c(n2n1)CC1CCC3N1Cc1ccccc1 (stereo not shown) [CBK282266],85.6056
7,Cc1ccc(C(=O)COC(=O)C(Cc2ccccc2)N2C(=O)c3cc(Cl)c(Cl)cc3C2=O)cc1 (stereo not shown) [CBK264176],102.251
8,N=C1NS(=O)(=O)NC1c1ccc(Cl)cc1 (stereo not shown) [CBK263858],106.523
9,COCCNc1nc(-c2ccsc2)ccc1C(=O)N1CCN(C)CC1 [CBK105948],76.2507
10,OCCNCCNCc1ccc(-c2ccccc2)cc1 [CBK278269C],76.8416
11,O=C(Nc1cccc(Br)c1)C1CN(S(=O)(=O)c2ccccc2)CCN1S(=O)(=O)c1ccccc1 (stereo not shown) [CBK262671],78.8566
12,COCCN1C(=O)CO[C@H]2CN(C(=O)Nc3ccc(F)cc3)C[C@H]21 [CBK289705],72.7419
13,COc1ncc(-c2nccnc2Oc2cccc(NC(C)=O)c2)c(OC)n1 [CBK106747],88.3677
14,O=c1c2ccccc2nc2n1CCN(Cc1c(F)cccc1F)CC2 [CBK284817],91.1981
15,COc1ccc2c(CCNC(=O)C(c3ccccc3)c3ccccc3)c[nH]c2c1 [CBK269294],115.417
16,Cc1c(C(=O)NC(Cc2ccsc2)c2cccnc2)cnn1C (stereo not shown) [CBK285115],89.408
17,Cc1cc(C)nc(N2CCC(CC(=O)NCc3ccccc3N3CCCC3)CC2)n1 [CBK286071],122.042
18,O=C(CO)N1CC2(CCN(Cc3cc(=O)[nH]c(=O)[nH]3)CC2)c2ccccc21 [CBK131510],107.247
19,CN(Cc1ccccc1)c1nccnc1-c1ccccc1Cl [CBK037502],114.927
20,N#Cc1c(NC(=S)NC(=O)c2ccc(-c3cccc([N+](=O)[O-])c3)o2)sc2c1CCCC2 [CBK268471],92.6077
21,CC(Oc1ccc(Br)cc1)C(=O)Nc1ccc(C(N)=O)cc1 (stereo not shown) [CBK266760],97.4075
22,COc1cc(N)c(Cl)cc1C(=O)OCc1cc2ccc(C)cc2nc1Cl [CBK296755],112.478
23,c1ccc2oc(-c3cc4ccccc4o3)cc2c1 [CBK113363],100.362
24,CCSc1nc(N2CCNC[C@@H]2C)ccc1C(F)(F)F [CBK003986A],82.3345
25,NC(=O)C1CCN(C(=O)C2=NN(c3ccccc3)C(c3ccccc3)C2)CC1 (stereo not shown) [CBK296760],106.696
26,CC(C)Cc1nsc(NC2CCCN(c3ccn(C)n3)C2=O)n1 (stereo not shown) [CBK304696],55.8148

row,SMILES,% of control remaining
1,COCCC(=O)Nc1cccc(N2CCNCC2)c1 [CBK004769T],98.3543
2,CCC(CO)NCc1ccc(OCC(N)=O)cc1 (stereo not shown) [CBK304670],63.1414
3,O=C1CCC(=O)N1CCOc1nccnc1N1CCN(CCCn2c(=O)[nH]c3ccccc32)CC1 [CBK084300],54.8691
4,NC(=O)c1ccc(-n2ncc(-c3ccsc3)n2)cc1 [CBK112858],104.211
5,Cc1ccc(CCC(=O)NNc2ccccc2)o1 [CBK260924],94.2381
6,Cc1c(Cl)cccc1S(=O)(=O)Nc1cccc(C(=O)Nc2ccc(F)cc2)c1 [CBK038983],78.8263
7,CC1=NNC(=S)NC(C)(C)C1 [CBK021597],50.9941
8,CC(=O)N1CCC2(C/C=C/C[C@H]3CN(C(=O)CCC4CCCC4)CC[C@H]3NC(=O)CNC2=O)CC1 [CBK292111],111.076
9,O=C(COc1ccc2ccccc2c1)N1CCN(S(=O)(=O)c2ccc([N+](=O)[O-])cc2)CC1 [CBK264277],90.8025
10,O=C(Cn1ncn2c(cc3ccsc32)c1=O)N1CCCCCC1 [CBK284202],95.6301
11,COc1cccc(Nc2cc(-c3ccc(N4CCOCC4)cc3)ncn2)c1OC [CBK037687],159.056
12,NC(=O)CCCCn1c2c(c3cccc(C(=O)O)c31)CCCCC2 [CBK034088],102.084
13,NC(=O)COc1ccccc1OCC(N)=O [CBK261032],101.059
14,Fc1ccc(C2(CCCN3CCN(c4ccncc4)CC3)OCCO2)cc1 [CBK038887],78.8603
15,C=CCn1c(SCC(=O)Nc2cc(Cl)ccc2O)nnc1-c1ccccc1O [CBK269102],89.3027
16,Cc1noc(C)c1NC(=O)c1cnccn1 [CBK200390],92.0022
17,CC(=O)c1ccc(-c2nccnc2NCCc2ccncc2)s1 [CBK037300],111.145
18,CC(C)n1nccc1NC(=O)CCn1c(C(F)F)cc2cccnc21 [CBK284690],53.4248
19,CSc1ncc(CNC(=O)Nc2ccc3c(c2)CCC3)n1C [CBK306996],85.1861
20,Cc1ccc(NCC2CCN(Cc3cc(=O)n4ccccc4n3)C2)nc1 (stereo not shown) [CBK306334],28.9411
21,CCOC(=O)CCCNC(=O)N(CC)Cc1ccccc1 [CBK155252],124.057
22,COc1ccc(CN2CCNC(=O)C2CC(=O)O)c(F)c1 (stereo not shown) [CBK270143],102.954
23,O=C(c1csc(-c2ccccc2)n1)N1CCn2nc(C3CC3)cc2C1 [CBK304676],70.1321
24,CC(=O)NC(=O)c1cccc(Br)c1 [CBK022890],65.7274
25,COc1ccc(O)c(C(=O)c2cnn(-c3ccccn3)c2)c1 [CBK295141],107.949
26,CCNC(=O)c1cnc(-c2ccc(Cl)cc2)c(-c2cccnc2)c1 [CBK037584],110.182
